{"source": "patent US20190328784A1", "about": "“CHIMERIC ANTIGEN RECEPTORS (CARS) SPECIFIC FOR MUC1 AND METHODS FOR THEIR USE” (Poseida Therapeutics, Inc., priority 2016, published 2019)", "molecules": {"B1": {"name": "M1A-LH: MUC1 scFv CAR; single chain antibody SEQ ID NO: 31 (protein)", "scFv": "DILLTQSPAILSVSPGERVSFS[left out - about 80 residues]FGAGTKLELKGGGGSGGGGSGGGGSQVQLQQSGAELVRPGSSVKISCKTSGYAFSNFWMNWVKQRPGQGLEWIGQIYPGDGDTNYNGKFKGKATLTADKSSSTAYMQLSSLTSEASAVYFCARSYYRSAWFAYWGQGTLVSVSA", "modifications": "left off: a dimerising Fc or GST"}}, "key": {"[1]": {"test_system": "MUC1 expressed on activated T cells", "assay": "MUC1-scFv CAR function/epitope assay (degranulation, CD107a+ cells)", "format": "cell-based, human", "description": "(§1) The results of a functional assay are provided in the graph wherein MUC1-C scFv-CAR function was measured by the extent of degranulation of the cells in each condition contacted with the MUC1-scFv along the X-axis. Degranulation was measured as the percentage of total cells that were CD107a-positive (CD107a+). The chart summarizes the relative activity of each MUC1-C scFv-CAR during the functional assay.\nAs an initial study, MUC1 expression was assessed in different cell types (see FIG. 13). Cells included in this study: K562 cells (immortalized human chronic myelogenous leukemia cells), Raji cells (human hematopoietic cell line used as a model of cancer), Raji cells modified to express MUC1-C, activated T cells and RPMI8226 cells (human peripheral blood B cell plasmacytoma/myeloma cell line). MUC1 expression in each of these cells was assessed by staining with an anti-MUC1-N antibody."}, "full length MUC1": {"target": "T1, full length MUC1 (Homo sapiens, UniProt P15941)", "T1 construct": "expressed in transfected cells; host or cells: K562, Raji and RPMI8226 cells", "T1 sequence (P15941 24-1255)": "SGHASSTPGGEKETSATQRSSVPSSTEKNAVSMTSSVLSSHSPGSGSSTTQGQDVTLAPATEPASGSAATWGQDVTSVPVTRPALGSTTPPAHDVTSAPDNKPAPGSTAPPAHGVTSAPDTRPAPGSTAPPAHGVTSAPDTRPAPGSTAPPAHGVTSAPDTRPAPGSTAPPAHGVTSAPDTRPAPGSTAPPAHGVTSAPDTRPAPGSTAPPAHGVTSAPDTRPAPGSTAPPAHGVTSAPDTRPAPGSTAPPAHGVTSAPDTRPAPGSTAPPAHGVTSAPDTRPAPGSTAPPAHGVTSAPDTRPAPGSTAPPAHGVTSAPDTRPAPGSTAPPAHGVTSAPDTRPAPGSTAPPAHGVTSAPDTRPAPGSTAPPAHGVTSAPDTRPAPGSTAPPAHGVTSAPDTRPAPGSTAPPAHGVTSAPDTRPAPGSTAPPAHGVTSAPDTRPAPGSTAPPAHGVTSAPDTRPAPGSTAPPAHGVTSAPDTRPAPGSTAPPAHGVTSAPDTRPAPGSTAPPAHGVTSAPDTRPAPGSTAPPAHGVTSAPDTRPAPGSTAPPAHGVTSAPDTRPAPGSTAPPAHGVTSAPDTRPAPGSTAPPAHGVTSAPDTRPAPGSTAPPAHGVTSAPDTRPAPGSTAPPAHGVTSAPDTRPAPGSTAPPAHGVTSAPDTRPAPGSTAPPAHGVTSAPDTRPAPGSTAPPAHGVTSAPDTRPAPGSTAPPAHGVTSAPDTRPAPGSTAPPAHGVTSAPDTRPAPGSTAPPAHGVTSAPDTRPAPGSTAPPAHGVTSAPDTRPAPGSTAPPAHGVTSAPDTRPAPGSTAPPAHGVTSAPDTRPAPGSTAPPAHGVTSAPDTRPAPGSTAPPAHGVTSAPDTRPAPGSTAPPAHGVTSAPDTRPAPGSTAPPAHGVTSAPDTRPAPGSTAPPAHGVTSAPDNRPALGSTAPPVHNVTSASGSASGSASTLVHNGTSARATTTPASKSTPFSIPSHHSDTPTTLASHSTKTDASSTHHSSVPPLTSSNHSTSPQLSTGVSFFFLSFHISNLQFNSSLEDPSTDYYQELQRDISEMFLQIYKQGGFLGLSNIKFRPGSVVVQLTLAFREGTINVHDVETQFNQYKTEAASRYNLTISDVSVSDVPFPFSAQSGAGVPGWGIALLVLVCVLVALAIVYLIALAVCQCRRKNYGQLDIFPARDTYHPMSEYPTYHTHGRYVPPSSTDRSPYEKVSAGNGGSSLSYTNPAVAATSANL", "assay": "MUC1-scFv CAR function/epitope assay (degranulation, CD107a+ cells)", "format": "cell-based", "conditions": "cells expressing full-length MUC1", "description": "FIG. 14 is a graph depicting a MUC1-scFv CAR function assay. […] MUC1-scFv function is measured by the extent of degranulation of the cells in each condition contacted with the MUC1-scFv along the X-axis. Degranulation was measured as the percentage of total cells that were CD107a-positive (CD107a+).\nas §1\nThe function of each of the MUC1-scFv CARs described in this example was assayed in K562 cells, Raji cells and RPMI8226 cells (“8226”) cells in either unmodified conditions or following transfection with MUC1 constructs (either full-length or MUC1-C) to generate modified K562 cells, modified Raji cells and modified 8226 cells. Function of each of the MUC1-scFv CARs was measured by the CAR's ability to degranulate each cell type. Degranulation was measured by the percent of total cells that express […] (percentage of […] cells).\nThe F1C-HL, M1A-LH and K2B-HL MUC1-scFv CARs were further tested to determine epitope binding."}}, "note": "“Also recorded” adds a separate entry of the source.", "data": [{"molecule": "B1", "values": [{"measurement": "CAR reactivity (degranulation)", "setting": "[1]", "value": "to a lesser extent to that expressed on T cells"}, {"measurement": "CAR reactivity / binding (degranulation)", "setting": "full length MUC1", "value": "reacts against full length MUC1; also recorded: specifically binds"}]}]}
